The experiment deals with Nonstructural protein 3 (Zika virus) (UniProt A0A024AXB9).
Where [1] appears, read: PRVABC59, Concentration 50.0 uM, Number of replicates 1.0.
The mark [2] stands for this setting: PRVABC59, Concentration 15.0 uM, Number of replicates 1.0.

The values that follow come from ChEMBL document CHEMBL5606458, “ASAP - ZIKV NS2B-NS3 protease fluorescence single point” (2024).

In all, about 2,700 compounds went through this assay and about 160 (5.9%) showed an effect of 50% or more. The list shows a part of the results.

UniProt A0A024AXB9, sequence (A0A024AXB9 as listed by the source): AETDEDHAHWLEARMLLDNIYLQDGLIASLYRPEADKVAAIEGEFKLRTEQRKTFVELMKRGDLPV

The term inhibition denotes the relative decrease from the control value, in per cent. Regarding `N#C[C@@H](NC(=O)C1CCN(c2ccc(C=O)cc2)CC1)c1ccc(F)cc1`, the inhibition (PRVABC59, Concentration 10.0 uM, Number of replicates 1.0) was 25.4%. Consider `COc1ccc(C)cc1NC(=O)CNC(=O)C1CCN(c2ccc(C=O)cc2)CC1`, for which, under setting [1], the inhibition is 16.9%. Turning to `COc1cc(CS(=O)(=O)C2CCOCC2)nc(N2CCNCC2)n1`, the inhibition is 2.9% (PRVABC59, Concentration 49.5 uM, Number of replicates 2.0, Standard deviation 5.067066171415302 %); 0.761% (PRVABC59, Concentration 99.01 uM, Number of replicates 2.0, Standard deviation 0.4888272833711116 %); 1.52% (PRVABC59, Concentration 198.0 uM, Number of replicates 2.0, Standard deviation 0.3613898384306013 %). On to `C[C@@H](NC(=O)c1cc(Cl)ccc1NS(=O)(=O)c1ccc(Oc2ccccc2Cl)cc1)c1ccc2ccccc2c1`, for which the inhibition under setting [2] is 29.4%. Turning to `N#Cc1ccc(NC(=O)c2cc(Cl)ccc2NS(=O)(=O)c2ccc(Oc3ccccc3Cl)cc2)c(I)c1`, under setting [2], the inhibition stood at 22%. For `O=Cc1ccc(N2CCC(C(=O)N3CCn4c(nnc4C(F)(F)F)C3)CC2)cc1`, under setting [1], the inhibition was determined as 23.9%. Take `CC(C)N(Cc1cnn(C)c1)C(=O)c1cc(Cl)ccc1NS(=O)(=O)c1ccc(Oc2ccccc2Cl)cc1`: the inhibition under setting [2] worked out at 21.9%.

Regarding `CN1C(=O)c2ccc(NC(=O)c3cc(Cl)ccc3NS(=O)(=O)c3ccc(Oc4ccccc4Cl)cc3)cc2C1=O`, the inhibition under setting [2] stood at 29.1%. With `O=Cc1ccc(N2CCC(C(=O)Nc3nc4[nH]cnc4c(=O)[nH]3)CC2)cc1`, under setting [1], the inhibition came to 21.6%. The same measure, in the same setting: the value for `Cc1ccc(C[C@H]2CCCN(C(=O)C3CCN(c4ccc(C=O)cc4)CC3)C2)cc1` was 17.5%. Take `CC(C)(CO)NC(=O)c1cc(Cl)cc(NC(=O)c2c[nH]c(C(=O)N3CCCC3)c2)c1`: the inhibition by setting is: (PRVABC59, Concentration 49.5 uM, Number of replicates 2.0, Standard deviation 0.597244234900292 %) 1%; (PRVABC59, Concentration 99.01 uM, Number of replicates 2.0, Standard deviation 0.5630073383305285 %) 0.27%; (PRVABC59, Concentration 198.0 uM, Number of replicates 2.0, Standard deviation 0.35948783545100166 %) -1.43%. For `O=Cc1ccc(N2CCC(C(=O)N3CCN(C(=O)Cc4ccccc4)CC3)CC2)cc1`, the inhibition under setting [1] was determined as 26.3%.

In the case of `O=C(Nc1cnc(Br)cn1)c1cc(Cl)ccc1NS(=O)(=O)c1ccc(Oc2ccccc2Cl)cc1`, under setting [2], the inhibition was 22.6%.

Turning to `COc1ccccc1C[C@H](C)N(C)C(=O)c1cc(Cl)ccc1NS(=O)(=O)c1ccc(Oc2ccccc2Cl)cc1`, under setting [2], the inhibition stood at 22.2%. `c1ccc2c([C@H]3CCN(Cc4cnc5ccccn45)C3)c[nH]c2c1`: the inhibition (PRVABC59, Concentration 49.5 uM, Number of replicates 2.0, Standard deviation 1.722881570826631 %) amounted to 7.68%; the inhibition (PRVABC59, Concentration 99.01 uM, Number of replicates 2.0, Standard deviation 0.2228084717158711 %) amounted to 10.5%; the inhibition (PRVABC59, Concentration 198.0 uM, Number of replicates 2.0, Standard deviation 0.8886437101413989 %) worked out at 14.8%. Take `COc1cccc(CCNC(=O)C2CCN(c3ccc(C=O)cc3)CC2)c1`: under setting [1], the inhibition stood at 1.02%. Same read-out and setting: the value for `Cc1cccc(OC2CN(C(=O)C3CCN(c4ccc(C=O)cc4)CC3)C2)c1` was 29.4%.

For `CC(C)CN1CC[C@H](CNC(=O)c2cc(Cl)ccc2NS(=O)(=O)c2ccc(Oc3ccccc3Cl)cc2)C1`, under setting [2], the inhibition was 15.7%. As to `O=Cc1ccc(N2CCC(C(=O)NCCNC(=O)c3ccccc3Cl)CC2)cc1`, the inhibition under setting [1] is 20.1%. As for `Cc1nn([C@@H](C)c2nnnn2C2CC2)cc1C1CCNCC1`, the inhibition runs as follows: (PRVABC59, Concentration 49.5 uM, Number of replicates 2.0, Standard deviation 2.3033064314790743 %) -1.29%; (PRVABC59, Concentration 99.01 uM, Number of replicates 2.0, Standard deviation 2.6844291293545366 %) -0.376%; (PRVABC59, Concentration 198.0 uM, Number of replicates 2.0, Standard deviation 0.3562668047004051 %) -3.04%.

Consider `CN1CCN(c2ccc(NC(=O)c3cc(Cl)ccc3NS(=O)(=O)c3ccc(Oc4ccccc4Cl)cc3)cc2F)CC1`, for which the inhibition under setting [2] was 35.5%. The same measure, in the same setting: the value for `Cc1ccc(Cl)cc1N1CCN(C(=O)c2cc(Cl)ccc2NS(=O)(=O)c2ccc(Oc3ccccc3Cl)cc2)CC1` was 12.4%; that for `O=C(c1cc(Cl)ccc1NS(=O)(=O)c1ccc(Oc2ccccc2Cl)cc1)N1CC(Oc2ccc(Cl)cc2)C1` was 4.12%; that for `O=C(NCCOCc1ccccc1)c1cc(Cl)ccc1NS(=O)(=O)c1ccc(Oc2ccccc2Cl)cc1` was 31%.

For `CCCCCC(=O)N[C@H](C(=O)NCc1cccc(CN)c1)C1CCOCC1`, the inhibition by setting is: (PRVABC59, Concentration 49.5 uM, Number of replicates 2.0, Standard deviation 0.5056486622284423 %) -0.377%; (PRVABC59, Concentration 99.01 uM, Number of replicates 2.0, Standard deviation 0.25282436140726855 %) -0.843%; (PRVABC59, Concentration 198.0 uM, Number of replicates 2.0, Standard deviation 0.047404414981536996 %) 2.4%. Consider `Cc1cc(F)cc(Br)c1NC(=O)c1cc(Cl)ccc1NS(=O)(=O)c1ccc(Oc2ccccc2Cl)cc1`, for which the inhibition under setting [2] was found to be 23.2%.

Regarding `COc1ccc(CN(C)C(=O)C2CCN(c3ccc(C=O)cc3)CC2)cc1O`, the inhibition under setting [1] was determined as 21.5%. Same read-out and setting: the value for `CCc1ccc(CN(CC(C)C)C(=O)C2CCN(c3ccc(C=O)cc3)CC2)cc1` was 24.3%; that for `O=Cc1ccc(N2CCC(C(=O)NCC3CCC(C(F)(F)F)CC3)CC2)cc1` (configuration not stated) was 26%. As for `O=C(Nc1cncc(Br)c1)c1cc(Cl)ccc1NS(=O)(=O)c1ccc(Oc2ccccc2Cl)cc1`, the inhibition under setting [2] amounted to 24.9%. The same measure, in the same setting: the value for `O=C(c1cc(Cl)ccc1NS(=O)(=O)c1ccc(Oc2ccccc2Cl)cc1)N1CC[C@@]2(O)CCCC[C@H]2C1` was 4.56%.

As for `CC1(C)C[C@@](C)(CNC(=O)c2cnc[nH]2)CN1C(=O)c1ccc2[nH]nnc2c1`, the inhibition is -0.603% (PRVABC59, Concentration 49.5 uM, Number of replicates 2.0, Standard deviation 0.9249152326521356 %); -1.69% (PRVABC59, Concentration 99.01 uM, Number of replicates 2.0, Standard deviation 0.34716713151950906 %); -1.29% (PRVABC59, Concentration 198.0 uM, Number of replicates 2.0, Standard deviation 1.5233898947453204 %).

Take `O=C(Nc1ccc(-c2ccccc2)cc1)c1cc(Cl)ccc1NS(=O)(=O)c1ccc(Oc2ccccc2Cl)cc1`: the inhibition under setting [2] was 26.5%. Take `NCc1cccc(NC(=O)[C@H]2CCN(C(=O)OCc3ccccc3)C2)c1`: the inhibition was found to be 2.12% (PRVABC59, Concentration 49.5 uM, Number of replicates 2.0, Standard deviation 1.014906480267062 %); 5.37% (PRVABC59, Concentration 99.01 uM, Number of replicates 2.0, Standard deviation 0.22285769923493182 %); 9.25% (PRVABC59, Concentration 198.0 uM, Number of replicates 2.0, Standard deviation 1.2136714393129233 %). Take `O=Cc1ccc(N2CCC(C(=O)N(Cc3ccncc3)C[C@H]3CCCO3)CC2)cc1`: the inhibition under setting [1] was 23.5%. Take `COc1cc(Cc2cccc(OC)c2F)nc(N2CCNCC2)n1`: the inhibition reads like this: (PRVABC59, Concentration 49.5 uM, Number of replicates 2.0, Standard deviation 2.6153211736588906 %) 2.32%; (PRVABC59, Concentration 99.01 uM, Number of replicates 2.0, Standard deviation 4.59725938145552 %) 6.62%; (PRVABC59, Concentration 198.0 uM, Number of replicates 2.0, Standard deviation 0.3899203888867778 %) 8.41%. Regarding `Cc1ccc(OC2CCN(C(=O)c3cc(Cl)ccc3NS(=O)(=O)c3ccc(Oc4ccccc4Cl)cc3)CC2)cc1`, under setting [2], the inhibition was 5.2%. Regarding `Cc1nn(Cc2nnc(C(C)C)o2)cc1C1CCNCC1`, the inhibition (PRVABC59, Concentration 49.5 uM, Number of replicates 2.0, Standard deviation 0.5353450551005249 %) is -1.98%; the inhibition (PRVABC59, Concentration 99.01 uM, Number of replicates 2.0, Standard deviation 0.17229496801338245 %) is -2.26%; the inhibition (PRVABC59, Concentration 198.0 uM, Number of replicates 2.0, Standard deviation 0.7076400231139074 %) was -2.46%. As for `CN(Cc1nc2ccccc2[nH]1)C(=O)c1cc2c(ccn2C)[nH]1`, the inhibition is, setting by setting: (PRVABC59, Concentration 49.5 uM, Number of replicates 2.0, Standard deviation 5.172537563995753 %) -3.17%; (PRVABC59, Concentration 99.01 uM, Number of replicates 2.0, Standard deviation 6.695691457462837 %) -1.36%; (PRVABC59, Concentration 198.0 uM, Number of replicates 2.0, Standard deviation 6.467604851614249 %) 0.123%. Consider `O=Cc1ccc(N2CCC(C(=O)Nc3cnc(Br)cn3)CC2)cc1`, for which, under setting [1], the inhibition is 18.7%. Still for that read-out and setting: the value for `CN(C)C[C@H](O)CN1CCN(C(=O)C2CCN(c3ccc(C=O)cc3)CC2)CC1` was 19.1%; that for `NC(=O)[C@H](Cc1ccc(O)cc1)NC(=O)C1CCN(c2ccc(C=O)cc2)CC1` was 27%. Consider `OB(O)c1cccc(-c2noc(Cn3cnc4c3CCCC4)n2)c1`, for which the inhibition (PRVABC59, Concentration 49.5 uM, Number of replicates 2.0, Standard deviation 0.8580649914349869 %) was -2.62%; the inhibition (PRVABC59, Concentration 99.01 uM, Number of replicates 2.0, Standard deviation 0.7538714070076892 %) was -1.76%; the inhibition (PRVABC59, Concentration 198.0 uM, Number of replicates 2.0, Standard deviation 0.6108605013448731 %) stood at 0.25%. With `O=Cc1ccc(N2CCC(C(=O)Nc3cccc(C(F)(F)F)c3F)CC2)cc1`, the inhibition under setting [1] amounted to 22.2%.

Regarding `CCN(CCNC(=O)c1cc(Cl)ccc1NS(=O)(=O)c1ccc(Oc2ccccc2Cl)cc1)c1cccc(C)c1`, under setting [2], the inhibition stood at 15.1%.
